Here are results for 44 molecules from publication PMC4336329 (PLoS ONE, 2015).

Screen size: about 310,000 compounds; about 2,200 (0.71%) showed an effect of 50% or more. The effect is printed as a negative number. Some of the results follow.

The target in the assay is human ether-à-go-go-related gene (hERG) potassium channel (human, UniProt Q12809). The experiment in a line: primary screen, population patch clamp on CHO cells stably expressing hERG.
Chain of human ether-à-go-go-related gene (hERG) potassium channel (Q12809 whole entry, looked up): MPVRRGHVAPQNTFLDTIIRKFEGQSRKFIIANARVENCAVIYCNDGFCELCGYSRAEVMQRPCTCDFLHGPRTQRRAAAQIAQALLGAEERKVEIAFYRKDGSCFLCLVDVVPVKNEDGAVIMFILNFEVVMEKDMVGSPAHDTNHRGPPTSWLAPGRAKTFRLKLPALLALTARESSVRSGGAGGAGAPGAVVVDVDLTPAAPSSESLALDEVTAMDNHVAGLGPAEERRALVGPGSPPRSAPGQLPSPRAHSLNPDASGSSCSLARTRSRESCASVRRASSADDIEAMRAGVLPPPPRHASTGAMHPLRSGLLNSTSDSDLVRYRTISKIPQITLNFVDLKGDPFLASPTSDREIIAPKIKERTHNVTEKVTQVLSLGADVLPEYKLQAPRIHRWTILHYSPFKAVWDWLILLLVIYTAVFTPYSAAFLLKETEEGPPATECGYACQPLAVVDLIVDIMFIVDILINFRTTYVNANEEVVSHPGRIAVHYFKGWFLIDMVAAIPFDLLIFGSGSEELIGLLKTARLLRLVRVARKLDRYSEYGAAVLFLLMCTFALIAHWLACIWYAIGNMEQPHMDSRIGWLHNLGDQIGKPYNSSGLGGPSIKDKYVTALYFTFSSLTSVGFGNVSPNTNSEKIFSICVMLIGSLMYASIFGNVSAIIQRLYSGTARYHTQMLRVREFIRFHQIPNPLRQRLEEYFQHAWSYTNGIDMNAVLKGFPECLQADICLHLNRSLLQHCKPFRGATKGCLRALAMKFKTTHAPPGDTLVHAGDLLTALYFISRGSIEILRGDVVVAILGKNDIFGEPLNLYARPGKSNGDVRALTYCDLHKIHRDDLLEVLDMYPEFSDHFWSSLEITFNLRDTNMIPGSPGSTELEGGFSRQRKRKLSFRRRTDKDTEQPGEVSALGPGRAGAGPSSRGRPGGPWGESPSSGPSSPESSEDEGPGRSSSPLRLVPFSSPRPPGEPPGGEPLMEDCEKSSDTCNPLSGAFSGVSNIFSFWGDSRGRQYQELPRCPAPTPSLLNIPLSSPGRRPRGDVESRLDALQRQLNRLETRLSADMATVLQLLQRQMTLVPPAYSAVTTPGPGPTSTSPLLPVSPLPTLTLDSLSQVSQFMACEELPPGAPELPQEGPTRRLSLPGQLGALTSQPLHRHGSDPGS
Take `CCC(=O)NC(=S)Nc1ccc(NC(=O)COc2ccc([N+](=O)[O-])cc2)cc1`: the “hERG current change (%, negative = inhibition) at 1uM” value is 13.9%.
The value for `O=C(N/C(=C\c1cccc(Br)c1)C(=O)N1CCOCC1)c1ccco1` was 6.44%.
For `Cc1ccc2nc(-c3ccc(NC(=O)CSc4nccc(=O)[nH]4)cc3)sc2c1` the value was 10.6%; for `COc1ccc(-c2csc(N(CC3CCCO3)C(=O)c3cccs3)n2)cc1` (centres unmarked), -7.28%.
For `Cc1ccc(C(O)c2ccc(-n3ccnc3)cc2)cc1` (centres unmarked) the value was 12.2%; for `COc1cc(C(=O)NCCCc2ccccc2)cc(OC)c1OC`, 4.88%; for `O=C(Nc1ccc(C(F)(F)F)cc1[N+](=O)[O-])O[C@H]1[C@H](Cc2ccccc2)NS(=O)(=O)[C@H]2C[C@@H]3C=C[C@]12O3`, 11.8%.
As to `COc1cccc(-c2nc(CS(=O)(=O)CC(=O)Nc3cc(C)ccc3C)c(C)o2)c1`, the “hERG current change (%, negative = inhibition) at 1uM” value is reported as 7.07%.
The value for `Cc1ccc(S(=O)(=O)N(C)CC(=O)Nc2cccc(C)n2)cc1` was 14.6%; that for `COC(=O)c1ccccc1S(=O)(=O)N1CCCC(c2nc3c(nnn3Cc3ccc(C)cc3)c(=O)[nH]2)C1` (centres unmarked) was 6.86%.
For `CCn1c(SCC(=O)Nc2ccc(Cl)cc2)nnc1C1CC1` the value was -11.5%; for `Cc1ccc(C(=O)NCc2ccc3c(c2)OCO3)o1`, 18.5%; for `O=S(=O)(Nc1cccc2cn[nH]c12)c1ccc(F)cc1`, 11.6%.
The value for `CSCC(=O)N1CCCC(CO)(CCCc2ccccc2)C1` (centres unmarked) was 8.09%.
Regarding `O=C(O/N=C(/c1ccccc1)c1ccncc1)c1ccccc1[N+](=O)[O-]`, the “hERG current change (%, negative = inhibition) at 1uM” value was 14.6%.
Turning to `Cc1ccc2oc(C(=O)N3CCN(CC(=O)NC(C)C)CC3)c(C)c2c1`, the “hERG current change (%, negative = inhibition) at 1uM” value is on record as 1.34%.
For `CC(=O)Oc1c(C)c(OC(C)=O)c2c(c1C(C)=O)OC1CC(=O)C(C(C)=O)=C(O)C21C` (centres unmarked) the value was 12%; for `CCn1c(CNC(=O)c2ccccc2F)nnc1SCC(=O)NC1CCCCC1C` (centres unmarked), 30.8%; for `CC1CC=C2C(C#N)=C(N)C(C#N)(C#N)C(c3cccs3)C2C1` (centres unmarked), 7.96%.
The value for `N#Cc1c2c(c(=S)n(-c3ccccc3)c1N)CCCC2` was 13.2%; that for `COc1ccc(C2=NO[C@@H]3C(=O)N(c4ccc5c(c4)OCCO5)C(=O)[C@H]23)cc1OC` was 5.54%; that for `O=C(CCNC(=O)c1ccc(Cl)cc1)Nc1cccc(S(=O)(=O)N2CCCCC2)c1` was -6.25%.
For the molecule `COC(=O)C1=C(C)N=C2SC(C#N)=C(N)N2C1c1ccc(OC)cc1` (centres unmarked), the “hERG current change (%, negative = inhibition) at 1uM” value stood at 1.33%.
For `Cc1occc1C(=O)N1CCN(C(c2ccccc2)c2ccccc2)CC1` the value was 2.32%; for `CS(=O)(=O)N1CCN(c2ccccc2NC(=O)c2ccc(Br)o2)CC1`, 0.558%; for `COCCOc1ccc(C(F)(F)F)cc1N`, 14.1%.
For `C#CCSc1nnc(-c2ccc(O)cc2)o1` the value was 10.4%; for `CC(=O)c1cccc(NC(=O)c2cnn(-c3ccccc3)c2C)c1`, 6.14%.
The value for `CCC(=O)/C(=C(/O)c1ccccc1)c1nc2ccccc2[nH]1` was 16.6%; that for `C/C(=N\Nc1ccccc1C(=O)O)c1ccncc1` was 9.2%.
Turning to `Cc1cc(C)c(C)c(OCC(=O)O/N=C(\N)c2ccccn2)c1`, the “hERG current change (%, negative = inhibition) at 1uM” value was 4.17%.
For `N#CCSCC(=O)Nc1ccc(Cl)cc1` the value was 6.31%; for `O=C(N/N=C\c1cccnc1)c1ccc(Br)s1`, 11.9%; for `Cc1nnc(SCc2nc3sc4c(c3c(=O)[nH]2)CCCC4)[nH]c1=O`, 1.76%.
For `OC(CSc1ccccc1Cl)CN1CCN(c2ccc(F)cc2)CC1` (centres unmarked) the value was -11.2%.
For `COc1ccc(NC2=NCCCS2)cc1OC` the value was 11.5%; for `CC(C)n1c(=S)[nH]c2cc(Cl)ccc21`, 18.2%.
Regarding `O=C(/C(Br)=C/Nc1cc(Cl)ccc1Cl)C(F)(F)F`, the “hERG current change (%, negative = inhibition) at 1uM” value is -12.2%.
The value for `COc1ccccc1CCNC(=O)C(=O)NCC1OCCN1S(=O)(=O)c1ccc(F)cc1` (centres unmarked) was 3.37%; that for `O=C(NCc1ccncc1)c1cccc(S(=O)(=O)Nc2ccc(SC(F)F)cc2)c1` was 14.6%; that for `Cc1ccc(C(=O)O)cc1S(=O)(=O)N1CCC(C(=O)O)CC1` was 0.0851%.
For `COc1cc(C(c2nnnn2C2CCCC2)N2CCc3ccccc3C2)ccc1O.Cl` (centres unmarked) the value was -4.53%.
For `O=C(Cn1cc(Cl)c([N+](=O)[O-])n1)NCCC1=CCCCC1` the value was 19.9%.
Turning to `COc1ccc(N2CC(O)=C(c3nc(-c4ccc(Cl)cc4)cs3)C2=N)cc1`, the “hERG current change (%, negative = inhibition) at 1uM” value is on record as 14.5%.
